This passage reports binding results from publication PMC12818216.

By UniProt entry, the sequences of proteins in these tests, tags left out.
UniProt P40763: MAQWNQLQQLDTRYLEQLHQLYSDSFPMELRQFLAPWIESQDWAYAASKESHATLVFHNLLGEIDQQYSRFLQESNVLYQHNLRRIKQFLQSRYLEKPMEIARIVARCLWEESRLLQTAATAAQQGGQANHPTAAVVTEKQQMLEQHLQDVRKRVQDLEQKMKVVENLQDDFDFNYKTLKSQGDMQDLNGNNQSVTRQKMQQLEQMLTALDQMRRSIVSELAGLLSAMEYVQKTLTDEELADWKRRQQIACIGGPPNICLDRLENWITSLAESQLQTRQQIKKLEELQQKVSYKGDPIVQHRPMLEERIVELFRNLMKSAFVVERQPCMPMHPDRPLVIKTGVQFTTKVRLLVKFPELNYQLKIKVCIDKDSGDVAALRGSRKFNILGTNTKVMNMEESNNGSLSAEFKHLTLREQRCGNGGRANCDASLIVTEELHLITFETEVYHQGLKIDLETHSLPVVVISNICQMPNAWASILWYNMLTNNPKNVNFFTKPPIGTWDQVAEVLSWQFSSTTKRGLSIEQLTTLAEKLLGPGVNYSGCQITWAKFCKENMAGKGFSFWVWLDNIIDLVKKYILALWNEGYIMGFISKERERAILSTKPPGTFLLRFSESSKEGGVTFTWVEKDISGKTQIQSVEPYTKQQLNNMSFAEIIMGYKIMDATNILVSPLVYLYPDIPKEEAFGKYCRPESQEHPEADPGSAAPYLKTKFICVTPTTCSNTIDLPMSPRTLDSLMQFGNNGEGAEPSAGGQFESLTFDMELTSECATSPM
UniProt P23458: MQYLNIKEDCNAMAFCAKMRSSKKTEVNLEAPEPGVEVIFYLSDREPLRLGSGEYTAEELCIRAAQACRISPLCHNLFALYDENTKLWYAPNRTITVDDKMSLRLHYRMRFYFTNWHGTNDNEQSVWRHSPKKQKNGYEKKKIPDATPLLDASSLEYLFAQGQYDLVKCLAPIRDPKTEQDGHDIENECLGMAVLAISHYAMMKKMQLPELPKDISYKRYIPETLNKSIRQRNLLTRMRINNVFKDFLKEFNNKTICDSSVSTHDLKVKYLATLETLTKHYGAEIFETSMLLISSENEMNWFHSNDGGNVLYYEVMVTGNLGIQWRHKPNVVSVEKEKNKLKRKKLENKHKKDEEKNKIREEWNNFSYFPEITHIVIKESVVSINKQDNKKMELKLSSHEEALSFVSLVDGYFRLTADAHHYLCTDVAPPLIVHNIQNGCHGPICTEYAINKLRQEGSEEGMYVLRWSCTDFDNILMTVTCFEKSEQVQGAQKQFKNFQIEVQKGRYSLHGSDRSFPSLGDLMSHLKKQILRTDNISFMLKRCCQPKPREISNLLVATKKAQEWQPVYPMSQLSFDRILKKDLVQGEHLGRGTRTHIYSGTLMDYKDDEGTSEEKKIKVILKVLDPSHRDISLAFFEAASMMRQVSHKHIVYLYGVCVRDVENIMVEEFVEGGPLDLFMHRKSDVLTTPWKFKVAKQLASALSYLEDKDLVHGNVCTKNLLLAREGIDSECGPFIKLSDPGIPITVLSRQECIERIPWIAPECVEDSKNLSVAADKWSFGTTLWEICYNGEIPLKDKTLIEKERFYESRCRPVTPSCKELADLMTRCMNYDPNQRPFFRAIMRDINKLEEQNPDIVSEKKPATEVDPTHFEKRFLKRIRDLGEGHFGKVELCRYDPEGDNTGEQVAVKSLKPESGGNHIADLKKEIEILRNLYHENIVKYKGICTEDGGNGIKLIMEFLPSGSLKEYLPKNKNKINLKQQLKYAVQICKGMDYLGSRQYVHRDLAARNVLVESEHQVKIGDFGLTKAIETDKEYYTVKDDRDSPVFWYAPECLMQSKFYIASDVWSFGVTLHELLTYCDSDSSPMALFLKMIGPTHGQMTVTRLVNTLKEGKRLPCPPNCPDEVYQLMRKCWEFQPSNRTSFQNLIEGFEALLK
UniProt Q9P2J5: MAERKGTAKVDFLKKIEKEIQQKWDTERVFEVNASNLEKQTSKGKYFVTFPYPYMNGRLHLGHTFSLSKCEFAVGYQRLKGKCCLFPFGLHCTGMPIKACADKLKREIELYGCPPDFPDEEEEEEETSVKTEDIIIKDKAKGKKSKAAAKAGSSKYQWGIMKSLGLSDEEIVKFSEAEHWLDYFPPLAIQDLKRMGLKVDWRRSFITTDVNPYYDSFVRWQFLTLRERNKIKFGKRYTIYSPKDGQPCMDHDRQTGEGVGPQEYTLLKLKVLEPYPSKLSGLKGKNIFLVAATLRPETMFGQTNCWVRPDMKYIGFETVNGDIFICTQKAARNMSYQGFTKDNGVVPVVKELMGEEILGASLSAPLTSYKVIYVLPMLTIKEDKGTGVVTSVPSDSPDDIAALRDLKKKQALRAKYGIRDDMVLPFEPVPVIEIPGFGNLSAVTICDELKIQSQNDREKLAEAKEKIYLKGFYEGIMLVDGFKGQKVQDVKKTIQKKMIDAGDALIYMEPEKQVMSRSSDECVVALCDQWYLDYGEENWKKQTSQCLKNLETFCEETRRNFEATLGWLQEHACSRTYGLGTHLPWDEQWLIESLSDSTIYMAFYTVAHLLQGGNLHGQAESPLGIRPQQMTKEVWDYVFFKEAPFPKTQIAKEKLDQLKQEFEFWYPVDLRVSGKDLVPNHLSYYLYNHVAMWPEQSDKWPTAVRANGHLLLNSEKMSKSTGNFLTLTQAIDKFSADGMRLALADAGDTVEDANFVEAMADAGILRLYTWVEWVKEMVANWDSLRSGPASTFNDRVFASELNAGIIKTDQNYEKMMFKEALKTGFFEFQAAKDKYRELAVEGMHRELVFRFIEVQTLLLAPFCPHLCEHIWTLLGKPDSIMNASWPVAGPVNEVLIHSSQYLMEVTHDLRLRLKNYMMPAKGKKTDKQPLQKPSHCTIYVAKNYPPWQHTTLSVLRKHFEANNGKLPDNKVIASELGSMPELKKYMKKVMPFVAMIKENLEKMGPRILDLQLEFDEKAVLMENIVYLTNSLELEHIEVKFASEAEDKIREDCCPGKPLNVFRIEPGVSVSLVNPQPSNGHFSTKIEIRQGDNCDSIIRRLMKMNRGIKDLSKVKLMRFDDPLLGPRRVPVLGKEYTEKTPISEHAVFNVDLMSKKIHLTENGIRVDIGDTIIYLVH
UniProt P07814: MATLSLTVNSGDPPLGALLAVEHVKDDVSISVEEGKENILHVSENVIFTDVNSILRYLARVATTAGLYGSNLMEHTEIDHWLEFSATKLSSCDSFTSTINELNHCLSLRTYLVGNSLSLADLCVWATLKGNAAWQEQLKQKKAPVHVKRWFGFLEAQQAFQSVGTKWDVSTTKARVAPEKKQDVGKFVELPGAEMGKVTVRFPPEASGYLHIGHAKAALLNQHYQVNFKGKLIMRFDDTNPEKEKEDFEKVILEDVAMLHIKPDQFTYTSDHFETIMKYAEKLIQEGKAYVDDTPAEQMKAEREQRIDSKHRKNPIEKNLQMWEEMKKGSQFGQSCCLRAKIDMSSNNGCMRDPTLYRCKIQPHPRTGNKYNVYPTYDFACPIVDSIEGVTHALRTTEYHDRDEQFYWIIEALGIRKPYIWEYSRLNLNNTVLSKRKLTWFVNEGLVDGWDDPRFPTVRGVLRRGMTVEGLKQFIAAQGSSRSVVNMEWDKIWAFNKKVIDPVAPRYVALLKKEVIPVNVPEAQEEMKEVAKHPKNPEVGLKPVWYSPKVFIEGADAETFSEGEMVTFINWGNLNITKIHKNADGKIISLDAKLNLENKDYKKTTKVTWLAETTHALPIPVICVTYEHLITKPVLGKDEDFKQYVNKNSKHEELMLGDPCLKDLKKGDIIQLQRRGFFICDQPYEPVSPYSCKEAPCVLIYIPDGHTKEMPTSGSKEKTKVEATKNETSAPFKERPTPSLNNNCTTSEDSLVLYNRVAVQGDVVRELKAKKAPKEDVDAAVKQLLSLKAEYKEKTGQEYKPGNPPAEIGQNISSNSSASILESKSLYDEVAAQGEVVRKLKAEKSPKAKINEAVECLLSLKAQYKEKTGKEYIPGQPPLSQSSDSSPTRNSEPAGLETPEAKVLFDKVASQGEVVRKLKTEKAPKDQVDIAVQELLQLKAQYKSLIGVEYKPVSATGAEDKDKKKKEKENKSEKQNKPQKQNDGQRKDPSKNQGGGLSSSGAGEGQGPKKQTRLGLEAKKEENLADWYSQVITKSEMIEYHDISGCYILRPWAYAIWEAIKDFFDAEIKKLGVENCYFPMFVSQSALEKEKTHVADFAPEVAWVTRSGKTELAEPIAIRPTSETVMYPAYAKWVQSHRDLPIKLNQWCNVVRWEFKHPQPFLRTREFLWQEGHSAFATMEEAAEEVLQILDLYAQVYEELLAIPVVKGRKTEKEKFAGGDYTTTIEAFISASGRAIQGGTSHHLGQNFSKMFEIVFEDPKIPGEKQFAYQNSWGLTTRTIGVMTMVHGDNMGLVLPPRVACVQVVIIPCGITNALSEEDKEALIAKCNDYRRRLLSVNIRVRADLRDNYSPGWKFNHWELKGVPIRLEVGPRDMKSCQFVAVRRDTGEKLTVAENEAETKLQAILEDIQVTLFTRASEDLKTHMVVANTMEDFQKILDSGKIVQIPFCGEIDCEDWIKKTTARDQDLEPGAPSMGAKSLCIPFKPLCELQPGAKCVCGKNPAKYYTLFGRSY
UniProt Q15046: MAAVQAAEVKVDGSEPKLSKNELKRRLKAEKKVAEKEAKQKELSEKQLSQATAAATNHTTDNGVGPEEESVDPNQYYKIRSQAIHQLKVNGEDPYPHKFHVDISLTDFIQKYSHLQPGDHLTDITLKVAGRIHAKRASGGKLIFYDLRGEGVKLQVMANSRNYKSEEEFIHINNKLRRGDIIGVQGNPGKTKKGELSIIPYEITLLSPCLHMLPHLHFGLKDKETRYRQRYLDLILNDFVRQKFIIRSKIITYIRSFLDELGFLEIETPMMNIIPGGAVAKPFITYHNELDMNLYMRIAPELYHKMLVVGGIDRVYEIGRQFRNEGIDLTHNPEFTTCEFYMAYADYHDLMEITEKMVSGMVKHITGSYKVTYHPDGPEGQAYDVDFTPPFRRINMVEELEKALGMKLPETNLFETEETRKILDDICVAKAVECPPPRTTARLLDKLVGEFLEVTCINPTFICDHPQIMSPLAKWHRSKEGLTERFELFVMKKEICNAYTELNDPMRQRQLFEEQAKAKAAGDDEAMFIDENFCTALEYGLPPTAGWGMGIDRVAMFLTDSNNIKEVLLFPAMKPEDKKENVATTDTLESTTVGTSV

The target in one assay is T1, FLAG-TARS1 (mouse) (UniProt Q9D0R2).
T1 sequence: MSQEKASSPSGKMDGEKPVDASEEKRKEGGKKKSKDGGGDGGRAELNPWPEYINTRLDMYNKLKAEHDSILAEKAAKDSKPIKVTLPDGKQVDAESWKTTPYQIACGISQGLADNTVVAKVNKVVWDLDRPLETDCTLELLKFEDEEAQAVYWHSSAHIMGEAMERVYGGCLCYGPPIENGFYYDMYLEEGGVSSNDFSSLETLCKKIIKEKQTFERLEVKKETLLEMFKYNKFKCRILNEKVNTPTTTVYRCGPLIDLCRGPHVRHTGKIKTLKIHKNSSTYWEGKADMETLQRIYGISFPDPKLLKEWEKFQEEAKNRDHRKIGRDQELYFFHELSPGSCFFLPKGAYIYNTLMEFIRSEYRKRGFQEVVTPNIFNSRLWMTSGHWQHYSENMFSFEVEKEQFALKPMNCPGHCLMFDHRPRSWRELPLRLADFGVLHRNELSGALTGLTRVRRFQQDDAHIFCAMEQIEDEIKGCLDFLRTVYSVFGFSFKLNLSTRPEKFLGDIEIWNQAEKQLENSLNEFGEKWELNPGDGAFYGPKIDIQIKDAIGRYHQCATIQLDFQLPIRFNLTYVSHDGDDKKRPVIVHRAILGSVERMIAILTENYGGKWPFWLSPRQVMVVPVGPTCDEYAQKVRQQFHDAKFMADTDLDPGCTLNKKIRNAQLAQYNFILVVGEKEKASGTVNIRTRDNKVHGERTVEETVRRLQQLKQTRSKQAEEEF
The experiment in a line: co-IP; HEK293 cells transfected for 2 days with recombinant constructs, anti-FLAG IP and Western blotting.

A further assay has as its target FLAG-STAT3 (UniProt P40763). The assay is described as above.
Assay [1] concerns the target signal transducer and activator of transcription 3 (STAT3), endogenous (human (endogenous in H1703)) (UniProt P40763). Kind of assay: co-IP; H1703 cell lysates, endogenous proteins, IP with anti-STAT3 followed by Western blotting.
A further assay addresses FLAG-JAK1 (UniProt P23458). Kind of assay: co-IP; HEK293 cells transfected with FLAG-JAK1 (or empty vector) for 2 days, anti-FLAG IP; endogenous TARS1 detected by Western blotting.

These are yes or no findings as the source states them, for the method shown. In cells and extracts the contact can be indirect. Some binding calls cover weakened binding; strength is not graded here. For some assays here: Where a sequence is shown, tags or fusion partners need not be part of it.

In the case of GFP-STAT3 (from UniProt P40763 1-770), the binding entry with FLAG-TARS1 (mouse) was “binds”.

On to “leucyl-tRNA synthetase 1 (from UniProt Q9P2J5 1-1176) (enzyme)”, for which the binding entry with FLAG-STAT3 is given as “no binding”.

As to “glutamyl-prolyl-tRNA synthetase 1 (from UniProt P07814 1-1512) (enzyme)”, the binding entry in the assay with FLAG-STAT3 was “no binding”.

As to “lysyl-tRNA synthetase 1 (from UniProt Q15046 1-597) (enzyme)”, the binding result with FLAG-STAT3 is on record as “no binding”.

B1: GFP-TARS1 (enzyme, UniProt Q9D0R2 1-722)
chain: MSQEKASSPSGKMDGEKPVDASEEKRKEGGKKKSKDGGGDGGRAELNPWPEYINTRLDMYNKLKAEHDSILAEKAAKDSKPIKVTLPDGKQVDAESWKTTPYQIACGISQGLADNTVVAKVNKVVWDLDRPLETDCTLELLKFEDEEAQAVYWHSSAHIMGEAMERVYGGCLCYGPPIENGFYYDMYLEEGGVSSNDFSSLETLCKKIIKEKQTFERLEVKKETLLEMFKYNKFKCRILNEKVNTPTTTVYRCGPLIDLCRGPHVRHTGKIKTLKIHKNSSTYWEGKADMETLQRIYGISFPDPKLLKEWEKFQEEAKNRDHRKIGRDQELYFFHELSPGSCFFLPKGAYIYNTLMEFIRSEYRKRGFQEVVTPNIFNSRLWMTSGHWQHYSENMFSFEVEKEQFALKPMNCPGHCLMFDHRPRSWRELPLRLADFGVLHRNELSGALTGLTRVRRFQQDDAHIFCAMEQIEDEIKGCLDFLRTVYSVFGFSFKLNLSTRPEKFLGDIEIWNQAEKQLENSLNEFGEKWELNPGDGAFYGPKIDIQIKDAIGRYHQCATIQLDFQLPIRFNLTYVSHDGDDKKRPVIVHRAILGSVERMIAILTENYGGKWPFWLSPRQVMVVPVGPTCDEYAQKVRQQFHDAKFMADTDLDPGCTLNKKIRNAQLAQYNFILVVGEKEKASGTVNIRTRDNKVHGERTVEETVRRLQQLKQTRSKQAEEEF
B1: the binding result with FLAG-STAT3 was “binds”.

B2: aspartyl-tRNA synthetase 1 (enzyme, UniProt P14868 1-501)
chain: MPSASASRKSQEKPREIMDAAEDYAKERYGISSMIQSQEKPDRVLVRVRDLTIQKADEVVWVRARVHTSRAKGKQCFLVLRQQQFNVQALVAVGDHASKQMVKFAANINKESIVDVEGVVRKVNQKIGSCTQQDVELHVQKIYVISLAEPRLPLQLDDAVRPEAEGEEEGRATVNQDTRLDNRVIDLRTSTSQAVFRLQSGICHLFRETLINKGFVEIQTPKIISAASEGGANVFTVSYFKNNAYLAQSPQLYKQMCICADFEKVFSIGPVFRAEDSNTHRHLTEFVGLDIEMAFNYHYHEVMEEIADTMVQIFKGLQERFQTEIQTVNKQFPCEPFKFLEPTLRLEYCEALAMLREAGVEMGDEDDLSTPNEKLLGHLVKEKYDTDFYILDKYPLAVRPFYTMPDPRNPKQSNSYDMFMRGEEILSGAQRIHDPQLLTERALHHGIDLEKIKAYIDSFRFGAPPHAGGGIGLERVTMLFLGLHNVRQTSMFPRDPKRLTP
With B2, the binding result in the assay with FLAG-STAT3 is reported as “no binding”.

B3: threonyl-tRNA synthetase 1 (TARS1), endogenous (enzyme, UniProt P26639 1-723)
chain: MFEEKASSPSGKMGGEEKPIGAGEEKQKEGGKKKNKEGSGDGGRAELNPWPEYIYTRLEMYNILKAEHDSILAEKAEKDSKPIKVTLPDGKQVDAESWKTTPYQIACGISQGLADNTVIAKVNNVVWDLDRPLEEDCTLELLKFEDEEAQAVYWHSSAHIMGEAMERVYGGCLCYGPPIENGFYYDMYLEEGGVSSNDFSSLEALCKKIIKEKQAFERLEVKKETLLAMFKYNKFKCRILNEKVNTPTTTVYRCGPLIDLCRGPHVRHTGKIKALKIHKNSSTYWEGKADMETLQRIYGISFPDPKMLKEWEKFQEEAKNRDHRKIGRDQELYFFHELSPGSCFFLPKGAYIYNALIEFIRSEYRKRGFQEVVTPNIFNSRLWMTSGHWQHYSENMFSFEVEKELFALKPMNCPGHCLMFDHRPRSWRELPLRLADFGVLHRNELSGALTGLTRVRRFQQDDAHIFCAMEQIEDEIKGCLDFLRTVYSVFGFSFKLNLSTRPEKFLGDIEVWDQAEKQLENSLNEFGEKWELNSGDGAFYGPKIDIQIKDAIGRYHQCATIQLDFQLPIRFNLTYVSHDGDDKKRPVIVHRAILGSVERMIAILTENYGGKWPFWLSPRQVMVVPVGPTCDEYAQKVRQQFHDAKFMADIDLDPGCTLNKKIRNAQLAQYNFILVVGEKEKISGTVNIRTRDNKVHGERTISETIERLQQLKEFRSKQAEEEF
Take B3: the binding result (in assay [1]; in the assay with FLAG-JAK1) was “binds” throughout.
